This test addresses Genome polyprotein (dengue virus type 2) (UniProt P29990).
[1] abbreviates: Thailand/16681/1984, Concentration 25.0 uM, Number of replicates 1.0.

In general, inhibition refers to the relative decrease from the control value, in per cent.

Out of some 2,000 compounds screened, about 110 (5.5%) showed an effect of 50% or more. Some of the results follow.

With `CS(=O)(=O)c1ccc(N2CCNCC2)cc1NC(=O)c1cccc2ncccc12`, the inhibition is, setting by setting: (Thailand/16681/1984, Concentration 49.5 uM, Number of replicates 2.0, Standard deviation 1.471415223025232 %) -1.91%; (Thailand/16681/1984, Concentration 99.01 uM, Number of replicates 2.0, Standard deviation 0.5882879031511815 %) -1.35%; (Thailand/16681/1984, Concentration 198.0 uM, Number of replicates 2.0, Standard deviation 4.6321298294521 %) 0.843%.
Regarding `O=Cc1ccc(N2CCC(C(=O)Nc3cncc(Br)c3)CC2)cc1`, under setting [1], the inhibition stood at 14.1%.
As for `COc1cc(F)c(CNC(=O)C2CCN(c3ccc(C=O)cc3)CC2)c(F)c1`, the inhibition under setting [1] stood at 7.48%.
In the case of `CCc1n[nH]c([C@H]2CN(C(=O)c3cn([C@H]4CCCNC4)nn3)CCO2)n1`, the inhibition is, setting by setting: (Thailand/16681/1984, Concentration 49.5 uM, Number of replicates 2.0, Standard deviation 1.2173915519701617 %) -0.434%; (Thailand/16681/1984, Concentration 99.01 uM, Number of replicates 2.0, Standard deviation 1.8302492765621325 %) 0.688%; (Thailand/16681/1984, Concentration 198.0 uM, Number of replicates 2.0, Standard deviation 1.732441824768054 %) 2%.
`CCn1ccnc(N2CC[C@@H](CC#N)C2)c1=O`: the inhibition amounted to 6.13% (Thailand/16681/1984, Concentration 49.5 uM, Number of replicates 2.0, Standard deviation 0.07238670655527837 %); 13.9% (Thailand/16681/1984, Concentration 99.01 uM, Number of replicates 2.0, Standard deviation 0.5796358295014711 %); 24.9% (Thailand/16681/1984, Concentration 198.0 uM, Number of replicates 2.0, Standard deviation 0.36138798396926686 %).
On to `Cc1cc(CO)c2cccc(NC(=O)Cc3nnc(C)[nH]3)c2n1`, for which the inhibition (Thailand/16681/1984, Concentration 49.95 uM, Number of replicates 2.0, Standard deviation 1.6214486049767967 %) worked out at 10.4% and the inhibition (Thailand/16681/1984, Concentration 99.9 uM, Number of replicates 2.0, Standard deviation 3.3969341631920567 %) was 17.9%.
Regarding `CC(C)Nc1nc2ccc(C(=O)Nc3nc4ccc(F)cc4[nH]3)cc2[nH]1`, the inhibition was -0.826% (Thailand/16681/1984, Concentration 49.5 uM, Number of replicates 2.0, Standard deviation 1.1088949771416101 %); 0.77% (Thailand/16681/1984, Concentration 99.01 uM, Number of replicates 2.0, Standard deviation 1.531680896343838 %); 10.6% (Thailand/16681/1984, Concentration 198.0 uM, Number of replicates 2.0, Standard deviation 0.7658399318730248 %).
Regarding `Cc1cc(CO)c2cccc(Cc3ccccc3C(=O)NCCN3CCOCC3)c2n1`, the inhibition by setting is: (Thailand/16681/1984, Concentration 49.95 uM, Number of replicates 2.0, Standard deviation 0.8235750873336125 %) -0.922%; (Thailand/16681/1984, Concentration 99.9 uM, Number of replicates 2.0, Standard deviation 1.065042095325802 %) 4.91%.
Consider `COc1ccccc1N1CCN(C(=O)C2CCN(c3ccc(C=O)cc3)CC2)CC1`, for which the inhibition under setting [1] stood at 12.1%.
As to `CN(Cc1csc(-c2ccccc2)n1)C(=O)C1CCN(c2ccc(C=O)cc2)CC1`, the inhibition under setting [1] was determined as 12.4%.
In the case of `O=C1Nc2c(Br)cccc2C[C@@]12CCCN2`, the inhibition is, setting by setting: (Thailand/16681/1984, Concentration 49.5 uM, Number of replicates 2.0, Standard deviation 0.4152261996696888 %) -1.46%; (Thailand/16681/1984, Concentration 99.01 uM, Number of replicates 2.0, Standard deviation 0.41139918153120264 %) -1.6%; (Thailand/16681/1984, Concentration 198.0 uM, Number of replicates 2.0, Standard deviation 0.7673074219179014 %) -0.252%.
As for `O=Cc1ccc(N2CCC(C(=O)Nc3ccc(OCc4ccccn4)c(Cl)c3)CC2)cc1`, the inhibition under setting [1] was found to be 12.2%.
Regarding `C#CCN(Cc1ccc(C)cc1)C(=O)C1CCN(c2ccc(C=O)cc2)CC1`, under setting [1], the inhibition came to 13.9%.
For the molecule `Cc1cccc(C)c1OC[C@H](C)NC(=O)C1CCN(c2ccc(C=O)cc2)CC1`, the inhibition under setting [1] amounted to 6.86%.
As to `O=C1NCc2ccccc2C12CCN(C1CS(=O)(=O)C1)CC2`, the inhibition runs as follows: (Thailand/16681/1984, Concentration 49.5 uM, Number of replicates 2.0, Standard deviation 0.8986864822779989 %) -0.528%; (Thailand/16681/1984, Concentration 99.01 uM, Number of replicates 2.0, Standard deviation 0.5142855155974841 %) -0.402%; (Thailand/16681/1984, Concentration 198.0 uM, Number of replicates 2.0, Standard deviation 1.1804213295415233 %) -0.795%.
Turning to `O=Cc1ccc(N2CCC(C(=O)NC[C@H](O)COc3ccccc3)CC2)cc1`, under setting [1], the inhibition worked out at 13.5%.
The same measure, in the same setting: as for `COc1cc(NC(=O)C2CCN(c3ccc(C=O)cc3)CC2)cc(OC)c1`, the figure is 16%; as for `O=Cc1ccc(N2CCC(C(=O)N[C@@H]3CCCN(Cc4ccccc4)C3)CC2)cc1`, 13.3%.
Turning to `COc1ccc2ccccc2c1CCNC(=O)C1CCN(c2ccc(C=O)cc2)CC1`, under setting [1], the inhibition was 15.9%.
Same read-out and setting: as for `C[C@@H](Cc1ccc(O)cc1)NC(=O)C1CCN(c2ccc(C=O)cc2)CC1`, the figure is 12.7%.
Consider `COc1cc(CS(=O)(=O)CCCC(F)(F)F)nc(N2CCNCC2)n1`, for which the inhibition is -2.49% (Thailand/16681/1984, Concentration 49.5 uM, Number of replicates 2.0, Standard deviation 0.8484998484591365 %); -1.19% (Thailand/16681/1984, Concentration 99.01 uM, Number of replicates 2.0, Standard deviation 0.7897198726239637 %); 0.271% (Thailand/16681/1984, Concentration 198.0 uM, Number of replicates 2.0, Standard deviation 1.3519394442089752 %).
Turning to `c1ccc2c([C@H]3CCN(C[C@H]4CCOC4)C3)c[nH]c2c1`, the inhibition runs as follows: (Thailand/16681/1984, Concentration 49.5 uM, Number of replicates 2.0, Standard deviation 1.7417878041316477 %) -0.7%; (Thailand/16681/1984, Concentration 99.01 uM, Number of replicates 2.0, Standard deviation 0.9998751017735912 %) 1.19%; (Thailand/16681/1984, Concentration 198.0 uM, Number of replicates 2.0, Standard deviation 1.077372240151361 %) 3.4%.
As for `O=C(NCc1nc(CO)cs1)[C@]1(c2ccc(F)cc2)CCCNC1`, the inhibition is, setting by setting: (Thailand/16681/1984, Concentration 49.5 uM, Number of replicates 2.0, Standard deviation 0.7429134792759478 %) -2.21%; (Thailand/16681/1984, Concentration 99.01 uM, Number of replicates 2.0, Standard deviation 0.3053293037018969 %) -1.85%; (Thailand/16681/1984, Concentration 198.0 uM, Number of replicates 2.0, Standard deviation 0.2612443323622294 %) -1.1%.
Turning to `Cc1cc(CO)c2cccc(NC(=O)c3cc(C(F)F)nn3C)c2n1`, the inhibition (Thailand/16681/1984, Concentration 49.95 uM, Number of replicates 2.0, Standard deviation 2.6240439065001295 %) stood at 9.2% and the inhibition (Thailand/16681/1984, Concentration 99.9 uM, Number of replicates 2.0, Standard deviation 2.105181135153063 %) was 15.2%.
`CN(C)Cc1ccc(C(=O)Nc2cc(Cl)cc(C(=O)NC(C)(C)CO)c2)[nH]1`: the inhibition was determined as 0.205% (Thailand/16681/1984, Concentration 49.5 uM, Number of replicates 2.0, Standard deviation 0.5051399787428742 %); 0.663% (Thailand/16681/1984, Concentration 99.01 uM, Number of replicates 2.0, Standard deviation 1.5521383022614499 %); 5.64% (Thailand/16681/1984, Concentration 198.0 uM, Number of replicates 2.0, Standard deviation 0.5964116239079592 %).
In the case of `NC(=O)c1ccc(CNC(=O)c2ccc(OCc3ccccc3)cc2)cc1`, the inhibition by setting is: (Thailand/16681/1984, Concentration 49.5 uM, Number of replicates 2.0, Standard deviation 3.419970703357444 %) -0.579%; (Thailand/16681/1984, Concentration 99.01 uM, Number of replicates 2.0, Standard deviation 3.9573061855257445 %) -0.365%; (Thailand/16681/1984, Concentration 198.0 uM, Number of replicates 2.0, Standard deviation 3.324054675683989 %) -1.19%.
On to `O=Cc1ccc(N2CCC(C(=O)NC3CCN(C(=O)Nc4ccccc4)CC3)CC2)cc1`, for which the inhibition under setting [1] was 13%.
`Cc1cc(CO)c2cccc(NC(=O)[C@H](N)CCO)c2n1`: the inhibition is, setting by setting: (Thailand/16681/1984, Concentration 49.95 uM, Number of replicates 2.0, Standard deviation 1.3748527891361653 %) 4.54%; (Thailand/16681/1984, Concentration 99.9 uM, Number of replicates 2.0, Standard deviation 1.6498238864430592 %) 9.95%.
In the case of `c1ccc2c([C@H]3CCN(Cc4ccnn4C4CCOCC4)C3)c[nH]c2c1`, the inhibition amounted to 0.381% (Thailand/16681/1984, Concentration 49.5 uM, Number of replicates 2.0, Standard deviation 0.1745039264906869 %); 1.5% (Thailand/16681/1984, Concentration 99.01 uM, Number of replicates 2.0, Standard deviation 0.15770381335260797 %); 3.57% (Thailand/16681/1984, Concentration 198.0 uM, Number of replicates 2.0, Standard deviation 0.5787893521959783 %).

The values above are taken from ChEMBL document CHEMBL5606460, “ASAP - DENV-2 NS2B-NS3 protease fluorescence single point” (2024).
